{"sequences": {"note": "Chains of the proteins cited; added tags and fusions are not shown. Lines headed by an entry give the natural chain unless they say otherwise; changes in a name come on top.", "UniProt Q96SB3": "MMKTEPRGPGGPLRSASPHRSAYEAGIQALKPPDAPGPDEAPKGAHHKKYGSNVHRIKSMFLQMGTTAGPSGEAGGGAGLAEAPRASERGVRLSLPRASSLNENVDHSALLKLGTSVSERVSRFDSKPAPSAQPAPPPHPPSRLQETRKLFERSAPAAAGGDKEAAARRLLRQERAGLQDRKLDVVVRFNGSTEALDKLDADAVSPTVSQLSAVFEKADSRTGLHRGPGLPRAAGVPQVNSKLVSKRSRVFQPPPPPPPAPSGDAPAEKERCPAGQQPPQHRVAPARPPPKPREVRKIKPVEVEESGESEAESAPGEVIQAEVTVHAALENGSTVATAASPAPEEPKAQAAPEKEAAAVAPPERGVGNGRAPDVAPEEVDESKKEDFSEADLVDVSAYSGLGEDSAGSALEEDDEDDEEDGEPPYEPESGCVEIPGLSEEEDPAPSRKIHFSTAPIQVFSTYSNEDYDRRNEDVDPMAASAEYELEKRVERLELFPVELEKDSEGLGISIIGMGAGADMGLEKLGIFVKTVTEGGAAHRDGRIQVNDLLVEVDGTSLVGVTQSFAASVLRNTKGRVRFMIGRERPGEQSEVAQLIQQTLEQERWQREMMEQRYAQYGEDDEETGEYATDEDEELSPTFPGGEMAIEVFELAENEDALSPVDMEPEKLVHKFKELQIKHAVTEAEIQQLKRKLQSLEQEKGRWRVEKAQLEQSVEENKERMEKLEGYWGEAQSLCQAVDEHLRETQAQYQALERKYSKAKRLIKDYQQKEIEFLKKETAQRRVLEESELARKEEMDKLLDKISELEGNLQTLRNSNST", "UniProt Q08999": "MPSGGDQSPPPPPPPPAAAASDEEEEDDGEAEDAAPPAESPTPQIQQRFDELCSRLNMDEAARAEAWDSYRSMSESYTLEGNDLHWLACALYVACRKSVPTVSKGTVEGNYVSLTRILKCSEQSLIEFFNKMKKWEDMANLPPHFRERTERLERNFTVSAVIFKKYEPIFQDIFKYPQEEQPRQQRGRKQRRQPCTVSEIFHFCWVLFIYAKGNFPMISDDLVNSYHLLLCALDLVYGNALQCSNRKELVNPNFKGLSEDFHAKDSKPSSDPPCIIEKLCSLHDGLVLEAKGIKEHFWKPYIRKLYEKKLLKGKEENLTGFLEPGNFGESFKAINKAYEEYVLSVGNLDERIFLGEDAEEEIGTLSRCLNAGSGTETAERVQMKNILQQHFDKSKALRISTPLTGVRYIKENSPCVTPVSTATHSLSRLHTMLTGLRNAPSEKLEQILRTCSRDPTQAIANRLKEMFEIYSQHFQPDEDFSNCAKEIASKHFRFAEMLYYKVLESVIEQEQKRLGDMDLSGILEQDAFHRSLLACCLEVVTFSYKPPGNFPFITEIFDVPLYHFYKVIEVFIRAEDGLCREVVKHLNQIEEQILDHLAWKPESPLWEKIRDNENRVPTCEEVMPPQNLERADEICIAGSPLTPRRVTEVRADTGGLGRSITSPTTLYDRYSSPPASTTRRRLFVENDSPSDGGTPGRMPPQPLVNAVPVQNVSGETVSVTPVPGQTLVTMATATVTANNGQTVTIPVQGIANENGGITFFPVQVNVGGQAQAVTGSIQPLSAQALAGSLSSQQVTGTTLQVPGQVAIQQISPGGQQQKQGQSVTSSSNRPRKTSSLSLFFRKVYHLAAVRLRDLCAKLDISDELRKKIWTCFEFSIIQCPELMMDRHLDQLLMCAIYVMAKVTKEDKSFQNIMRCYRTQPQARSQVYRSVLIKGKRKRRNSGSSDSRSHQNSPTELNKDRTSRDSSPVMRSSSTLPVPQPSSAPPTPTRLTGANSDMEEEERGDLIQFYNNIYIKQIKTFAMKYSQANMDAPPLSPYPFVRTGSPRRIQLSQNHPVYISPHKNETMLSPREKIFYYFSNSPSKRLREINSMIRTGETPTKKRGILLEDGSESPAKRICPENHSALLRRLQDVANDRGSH", "UniProt P36873": "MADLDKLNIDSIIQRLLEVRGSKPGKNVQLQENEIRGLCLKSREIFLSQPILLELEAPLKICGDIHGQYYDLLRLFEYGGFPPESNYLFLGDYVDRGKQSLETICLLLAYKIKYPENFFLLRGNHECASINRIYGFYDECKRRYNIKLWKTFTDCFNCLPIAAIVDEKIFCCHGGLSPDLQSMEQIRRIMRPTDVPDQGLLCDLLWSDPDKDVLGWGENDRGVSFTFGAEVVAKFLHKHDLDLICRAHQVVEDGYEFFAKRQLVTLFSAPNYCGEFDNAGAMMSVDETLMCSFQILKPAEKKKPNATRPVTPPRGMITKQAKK", "UniProt P62136": "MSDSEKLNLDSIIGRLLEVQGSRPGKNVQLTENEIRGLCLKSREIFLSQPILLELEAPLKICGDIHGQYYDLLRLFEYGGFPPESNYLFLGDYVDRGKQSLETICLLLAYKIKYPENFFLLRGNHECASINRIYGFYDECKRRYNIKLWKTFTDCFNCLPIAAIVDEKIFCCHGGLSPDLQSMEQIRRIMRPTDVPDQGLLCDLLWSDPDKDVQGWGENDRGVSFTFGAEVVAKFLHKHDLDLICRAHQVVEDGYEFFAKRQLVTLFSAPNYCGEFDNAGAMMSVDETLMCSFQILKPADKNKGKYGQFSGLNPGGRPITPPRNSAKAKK", "UniProt P62140": "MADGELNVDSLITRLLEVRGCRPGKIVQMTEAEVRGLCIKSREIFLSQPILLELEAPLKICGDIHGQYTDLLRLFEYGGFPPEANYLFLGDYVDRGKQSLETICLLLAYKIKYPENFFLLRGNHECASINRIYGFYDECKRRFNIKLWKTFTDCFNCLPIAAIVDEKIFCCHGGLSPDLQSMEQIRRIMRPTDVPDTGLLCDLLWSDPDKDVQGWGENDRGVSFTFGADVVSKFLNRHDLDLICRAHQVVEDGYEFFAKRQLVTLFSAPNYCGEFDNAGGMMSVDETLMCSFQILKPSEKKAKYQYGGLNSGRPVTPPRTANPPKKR"}, "source": "paper PMC7847670", "key": {"SPN-A566V (human)": {"target": "SPN-A566V (human) (UniProt Q96SB3)", "assay": "co-IP; anti-SPN (or anti-IgG control) on protein A Sepharose, 1 mg of T47D or MDA-MB-468 cell extract overnight, washed with PBS-BSA and IGEPAL 0.2%; blots for PP1α, PP1β, PP1γ, P-pRB, P-p107, P-p130"}, "[1]": {"target": "SPINOPHILIN (wild-type, endogenous) (human (endogenous in T47D and MDA-MB-468)) (UniProt Q96SB3)", "assay": "co-IP; anti-SPN (or anti-IgG control) on protein A Sepharose, 1 mg of T47D or MDA-MB-468 cell extract overnight, washed with PBS-BSA and IGEPAL 0.2%; blots for PP1α, PP1β, PP1γ, P-pRB, P-p107, P-p130"}}, "note": "These are yes or no findings as the source states them, for the method shown. In cells and extracts the contact can be indirect. Some binding calls cover weakened binding; strength is not graded here."}
{"substance": "P-p130 (Ser672) (from UniProt Q08999 1-1139)", "values": [{"measurement": "binding", "setting": "SPN-A566V (human)", "result": "binds weakly"}, {"measurement": "binding", "setting": "[1]", "result": "binds"}]}
{"substance": "PP1γ (from UniProt P36873 1-323) (enzyme)", "values": [{"measurement": "binding", "setting": "SPN-A566V (human)", "result": "binds"}]}
{"substance": "PP1α (from UniProt P62136 1-330) (enzyme)", "values": [{"measurement": "binding", "setting": "SPN-A566V (human)", "result": "binds"}]}
{"substance": "PP1β (from UniProt P62140 1-327) (enzyme)", "values": [{"measurement": "binding", "setting": "SPN-A566V (human)", "result": "no binding"}]}
